# PubChem BioAssay AID588342 (National Center for Advancing Translational Sciences (NCATS), 2011)
# The whole screen tested about 360,000 compounds, of which about 25,000 (6.9%) were called active. The inconclusive results got no clear call from the source; some entries with a clear call stand among them for comparison. Calls come from the whole dose curve; as a rule, active = well fitted inhibition curve with a large enough effect; inconclusive = small, poorly fitted or top-dose-only effect; inactive = flat fitted curve, though single readings scatter. Potencies of inconclusive entries are doubtful fits and often do not repeat.
# Target: Luciferin 4-monooxygenase (Photinus pyralis) (UniProt P08659)
# Assay: qHTS profiling assay for firefly luciferase inhibitor/activator using purifed enzyme and Km concentrations of substrates (counterscreen for miR-21 project); note: nearly all actives have a fitted effect of over 55% in size
# Settings: purified FLuc, luminescence inhibition; series mostly up to 57.5 µM
# In short: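 Purified P. pyralis luciferase (10nM final) with 10uM D-luciferin and 10uM ATP (Km levels) in 50mM Tris acetate pH 7.5, 10mM Mg acetate, 0.01% Tween-20, 0.05% BSA; qHTS 6-point titration, ~60 µM downward; luminescence read.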
# Potency is the fitted concentration of half-maximal effect; tags give direction and shape of the fitted curve.
# UniProt P08659, sequence (P08659 whole entry, looked up): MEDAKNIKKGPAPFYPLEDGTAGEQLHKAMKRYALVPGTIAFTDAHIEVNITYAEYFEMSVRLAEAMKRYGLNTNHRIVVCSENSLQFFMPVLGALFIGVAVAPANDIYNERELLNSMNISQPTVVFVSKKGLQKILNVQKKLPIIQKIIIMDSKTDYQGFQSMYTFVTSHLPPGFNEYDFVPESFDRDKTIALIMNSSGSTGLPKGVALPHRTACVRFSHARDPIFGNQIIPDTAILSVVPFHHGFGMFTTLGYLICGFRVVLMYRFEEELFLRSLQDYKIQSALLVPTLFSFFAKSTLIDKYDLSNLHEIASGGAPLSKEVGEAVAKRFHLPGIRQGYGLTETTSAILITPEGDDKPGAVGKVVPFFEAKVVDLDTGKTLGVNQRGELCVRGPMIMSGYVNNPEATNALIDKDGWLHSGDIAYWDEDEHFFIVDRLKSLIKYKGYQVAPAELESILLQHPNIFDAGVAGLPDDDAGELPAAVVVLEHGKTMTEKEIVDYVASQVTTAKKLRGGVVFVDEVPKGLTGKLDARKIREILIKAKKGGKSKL
row,Compound,Potency
1,O=C(CCCCCN1C(=O)c2ccccc2C1=O)Nc1ccc2c(c1)OCCO2,"inconclusive: 37.9 µM [inhibitor, partial curve, poor fit]"
2,CCOC(=O)C1CCN(Cc2ccc(OCc3ccccc3)cc2)CC1,inactive
3,CCN(CC(=O)Nc1ccccc1C(F)(F)F)C(=O)CCS(=O)(=O)c1ccc(C)cc1,inactive
4,O=C(O)CC1(CC(=O)Nc2ccc(C(F)(F)F)cc2)CCCC1,"inconclusive: 33.8 µM [inhibitor, partial curve, poor fit]"
5,O=C(COc1ccc2ccc(=O)oc2c1)Nc1ccc(CCO)cc1,"inconclusive: 26.9 µM [inhibitor, single point]"
6,COc1cccc(CCNC(=O)CCc2nnc(Cc3cc(OC)ccc3OC)o2)c1,"inconclusive: 19 µM [inhibitor, partial curve, poor fit]"
7,COCC(C)NC(=O)c1noc2c1CCc1cc(OC)ccc1-2 (stereo not drawn),active: 13.5 µM
8,O=C(Nc1ccc(C(=O)O)cc1)Nc1cccc2ccccc12,"inconclusive: 23.9 µM [inhibitor, partial curve]"
9,C(=C\c1ccccn1)/c1ccncc1,"inconclusive: 13.5 µM [inhibitor, partial curve]"
10,CC(CC(=O)Nc1ccc2c(c1)OCO2)c1ccccc1 (stereo not drawn),"inconclusive: 37.9 µM [inhibitor, single point]"
11,O=C1Nc2cc(Cl)c(Cl)cc2N(O)N1c1ccc(Cl)c(Cl)c1,"inconclusive: 37.9 µM [inhibitor, single point]"
12,Cc1ccc(SCC(=O)c2ccc(CC(=O)O)s2)cc1,"inconclusive: 33.8 µM [inhibitor, single point]"
13,CCOc1cc(/C=C2/C(=O)ON=C2C)ccc1OCc1ccccc1F,"inconclusive: 10.7 µM [inhibitor, partial curve]"
14,COc1ccc(C(=O)N/N=C/c2cc3ccccc3[nH]c2=S)cc1,"inconclusive: 33.8 µM [inhibitor, single point]"
15,COc1ccc(-n2nc([N+](=O)[O-])c(=NCCC3=CCCCC3)n2O)cc1,"inconclusive: 23.9 µM [inhibitor, single point]"
16,O=C(COC(=O)c1ccc(NC(=O)C2CC=CCC2C(=O)O)cc1)c1ccccc1 (stereo not drawn),"inconclusive: 37.9 µM [inhibitor, single point]"
17,C#CC(C)(CC)NC(=O)Cn1nnc(-c2ccc(OCc3ccccc3F)cc2)n1 (stereo not drawn),"inconclusive: 30.1 µM [inhibitor, partial curve, poor fit]"
18,Cc1cc(NC(=O)c2ccccc2)no1,active: 23.9 µM
19,Nc1nc(-c2cccs2)cs1,"inconclusive: 26.9 µM [inhibitor, single point]"
20,COC(=O)c1ccc(NC(=O)CSCc2ccccc2)cc1,"inconclusive: 23.9 µM [inhibitor, partial curve]"
21,CCOC(=O)c1sc(NC(=O)c2ccc(=O)[nH]c2)nc1C,"inconclusive: 33.8 µM [inhibitor, partial curve, poor fit]"
22,O=C(c1cc2c(s1)-c1ccccc1S(=O)(=O)C2)N1CCCC1,"inconclusive: 37.9 µM [inhibitor, partial curve, poor fit]"
23,CCCc1nn(C)c(C(=O)Nc2cccc(CC)c2)c1Cl,active: 16.9 µM

row,Compound,Potency
1,CCOc1ccc(N2C(=O)S/C(=C\c3cccn3C)C2=O)cc1,inactive
2,CC(=O)Oc1ccc2c(=O)c(-c3ccccc3)c(C)oc2c1,"inconclusive: 33.8 µM [inhibitor, partial curve, poor fit]"
3,O=C(COC(=O)c1ccc(Cl)nc1)c1ccc2c(c1)OCCO2,active: 0.757 µM
4,Nc1nc(NC(=O)c2ccco2)nn1-c1ccccc1,"inconclusive: 37.9 µM [inhibitor, partial curve, poor fit]"
5,Cc1ccc(NC(=O)c2ncn(-c3ccccc3)n2)cc1Cl,"inconclusive: 2.13 µM [inhibitor, full curve]"
6,COc1ccc(C2CC(c3ccc4ccccc4c3)=NN2C(=O)CNC2CCCCC2)cc1 (stereo not drawn),"inconclusive: 30.1 µM [inhibitor, partial curve, poor fit]"
7,Cc1ccc(-c2noc(CSc3ccccc3)n2)cc1,active: 2.13 µM
8,Cc1nnc(SCC(=O)Nc2ccc(Oc3ccccc3)cc2)n1N,"inconclusive: 21.3 µM [inhibitor, partial curve, poor fit]"
9,Cc1ccccc1C(=O)N1CCC(C(=O)OCc2nc(N)nc(Nc3ccccc3)n2)CC1,"inconclusive: 26.9 µM [inhibitor, single point]"
10,Cc1ccc(OCc2nc(-c3cccnc3)no2)cc1C,"inconclusive: 23.9 µM [inhibitor, partial curve]"
11,Cc1ccc(NC(=O)CS(=O)(=O)c2nc(-c3ccc(C)cc3)cn2-c2ccc(C)cc2)cc1,"inconclusive: 15.1 µM [inhibitor, partial curve, poor fit]"
12,COc1ccc(N=C2NC(=O)/C(=C/c3ccc(O)c(OC)c3)S2)cc1,"inconclusive: 37.9 µM [inhibitor, single point]"
13,CC1CCC/C(=C(\C#N)c2nc(-c3cc4ccccc4oc3=O)cs2)C1 (stereo not drawn),active: 1.69 µM
14,Oc1ccc(/C=N/Nc2cc(N3CCCC3)nc(N3CCCC3)n2)cc1O,"inconclusive: 37.9 µM [inhibitor, partial curve, poor fit]"
15,Cc1cc(=O)oc(C)c1C(=O)OCC(=O)c1ccc2ccccc2c1,active: 3.38 µM
16,COc1ccc(Cl)cc1C(=O)CSc1nnnn1C1CCCC1,"inconclusive: 26.9 µM [inhibitor, partial curve]"
17,Cc1cc(C)cc(NC(=S)N(Cc2ccc(Br)cc2)Cc2ccc(C(=O)O)cc2)c1,"inconclusive: 19 µM [inhibitor, partial curve, poor fit]"
18,O=C(CC1CCCCC1)NCc1nc(-c2ccccc2)no1,inactive
19,CCN(C(=O)CSc1ncc(S(=O)(=O)c2ccc(C)c(Cl)c2)c(=O)[nH]1)c1cccc(C)c1,"inconclusive: 21.3 µM [inhibitor, partial curve]"
20,Cc1cccc([C@@H]2[C@@H]3C(=O)N(Cc4ccccc4)C(=O)[C@@H]3[C@]3(C)C(=O)N(c4ccc(C(F)(F)F)cc4)C(=O)N23)c1,inactive
21,O=C(NNC(=O)C1CCN(c2ncccn2)CC1)c1ccc(Cl)cc1,inactive
22,COC(=O)c1c(C(=O)OC)c(-c2ccc(OC)cc2)n2c1CCC2,inactive
23,COC(=O)N/N=C/c1cn(CCOc2cccc(OC)c2)c2ccccc12,"inconclusive: 23.9 µM [inhibitor, partial curve, poor fit]"

row,Compound,Potency
1,N#CC(=C1CCCC1)c1nc(-c2ccccc2O)cs1,active: 1.35 µM
2,COC(=O)c1ccc(-n2cc(-c3ccc(OC)cc3)[nH]c2=S)cc1,"inconclusive: 7.57 µM [inhibitor, partial curve, poor fit]"
3,O=C(N/N=C/c1ccc([N+](=O)[O-])o1)c1ccc(NS(=O)(=O)c2cccs2)cc1,"inconclusive: 30.1 µM [inhibitor, partial curve, poor fit]"
4,O=C(Nc1cccnc1Cl)c1cc(-c2ccccc2O)on1,"inconclusive: 2.39 µM [inhibitor, full curve]"
5,COc1ccccc1C(=O)N/N=C/c1c[nH]c2ccccc12,active: 16.9 µM
6,COCc1nnc(NC(=O)CCc2ccc(OC)cc2)s1,"inconclusive: 26.9 µM [inhibitor, single point]"
7,CC12CCC(=O)N1C(C(=O)N1CCN(S(=O)(=O)c3cccc(Cl)c3)CC1)CS2 (stereo not drawn),inactive
8,Cc1cc(C)cc(C(=O)N(Cc2nc(-c3ccc(Cl)cc3)no2)C(C)C)c1,inactive
9,CCOc1ccccc1NC(=O)CN1C(=O)CC(c2ccco2)Sc2ccccc21 (stereo not drawn),"inconclusive: 37.9 µM [inhibitor, partial curve, poor fit]"
10,CCc1ccc(-c2cc3c(=O)n(CC(=O)NCCCN4CCN(Cc5ccccc5)CC4)nc(C)n3n2)cc1,active: 8.49 µM
11,CC(=O)Nc1ccc(/C=N/Nc2nc3ccccc3s2)cc1,active: 0.953 µM
12,Cc1ccc(NC(=O)c2ccc(OCC3CCCO3)cc2)cc1 (stereo not drawn),active: 6.01 µM
13,Cc1ccc(OC(=O)c2cccc([N+](=O)[O-])c2)c(-n2nc3ccccc3n2)c1,"inconclusive: 2.69 µM [inhibitor, partial curve, poor fit]"
14,CC(C)(C)OC(=O)N1CCC(c2c(C(=O)NCc3ccccn3)cnn2-c2ccccc2)CC1,inactive
15,COc1ccc(/C=C2\Oc3cc(OCC(=O)N4CCC[C@H]4C(=O)O)ccc3C2=O)c(OC)c1OC,"inconclusive: 19 µM [inhibitor, single point]"
16,COc1ccc(N2CCN(C(=O)c3ccc(C)c(NC(=O)c4nsc5ccccc45)c3)CC2)cc1,"inconclusive: 19 µM [inhibitor, partial curve, poor fit]"
17,CN(C(=O)CCOc1ccccc1)c1c(N)n(Cc2ccccc2)c(=O)[nH]c1=O,inactive
18,CCOC(=O)NC(=O)CSc1cc(C)c2cc(C)cc(C)c2n1,"inconclusive: 23.9 µM [inhibitor, partial curve]"
19,O=C(Nc1cc(Cl)cc(Cl)c1)c1ccc(F)c(S(=O)(=O)NC2CCCC2)c1,inactive
20,CCc1ccc(OCC(=O)NNCC(=O)Nc2ccc(OC)cc2)cc1,"inconclusive: 26.9 µM [inhibitor, partial curve]"
21,COc1ccc2nc(SCC(=O)Nc3ccc4c(c3)CCC4)[nH]c2c1,"inconclusive: 16.9 µM [inhibitor, partial curve]"
22,CCN(C(=O)Cc1c(C(=O)O)n(C)c2ccccc12)c1ccc(F)cc1,"inconclusive: 37.9 µM [inhibitor, partial curve, poor fit]"
